The record followed here is publication PMC9161086, “Water-Soluble Trichogin GA IV-Derived Peptaibols Protect Tomato Plants From Botrytis cinerea Infection With Limited Impact on Plant Defenses” (Frontiers in Plant Science, 2022).

In the experiment the test system is Botrytis cinerea strain B05.10. Description: Preventive efficacy against B. cinerea infection on detached tomato cv. Marmande leaves. The following applies: in vivo. The source says:
Marmande leaves, according to the same procedure.

As for `CCCCCCCC(=O)NC(C)(C)C(=O)NCC(=O)N[C@@H](CC(C)C)C(=O)NC(C)(C)C(=O)N[C@@H](CCCCN)C(=O)NC(C)(C)C(=O)N[C@@H](CC(C)C)C(=O)NC(C)(C)C(=O)NCC(=O)N[C@H](C(=O)N[C@@H](CC(C)C)C(N)=O)[C@@H](C)CC` [Pep 6r], the “Disease severity (necrotic lesion diameter), preventive treatment” value is “did not show protection capacity”.
